The values that follow come from publication PMC12860355.

In this experiment the target is monomeric actin (ATP–G-actin), chicken skeletal muscle (chicken) (UniProt P68139). Put plainly: SPR; actin coupled to CM5 chip; cofilin as analyte (Fig. S3, A and B); 1X HBS-EP+. Background: In SPR one partner is held on a chip, and binding of the other changes the refractive index at the surface.

As usually defined, the Kd is the constant that tells how readily two partners part at equilibrium. Read a high Kd as a looser complex. Take “human cofilin-1, wild type (a stretch of the chain, letters omitted) (natural protein; other documents disagree on this pair)”: the Kd amounted to 20 µM. This counts as double-digit micromolar.
